Recombinant human monoclonal antibodies (heavy:light variable regions). ELISA EC50 on the named antigen, from 10 µg/ml down; IC50 / IC90 against spike pseudovirus on 293T-ACE2 cells, 48 h; lower = stronger. Calls: IC50 above 1,000 ng/ml = non-neutralizing; EC50 above 2,000 ng/ml = non-binder. The source prints 1000 for neutralization that was not reached; it is given as >1000 ng/ml. A few antibodies were first reported in earlier work of the same group.
B1: C2401 (protein)
chain 1: EVQLLESGGGLVQPGGSLRLSCAASGFAFDTYAMTWVRQAPGKGLDWVSALSPSGGNKYYADSVKGRFTISRDNSKNTLYLQMHSLRAGDTAVYYCAKVWPRSSEGYFFDLWGQGTLVTVSS
chain 2: DIVMTQSPDSLAVSLGERATINCKSSQSVLYSSNNENFLAWYQQKPGQPPKLLIYWASTRESGVPDRFSGSGSGTDFTLTISSLQAEDVAVYYCQQYHSIPLTFGGGTKVEIK
B2: C2402 (protein)
chain 1: QVQLVQSGAELKKPGASVKVSCKASGYLFTGHYIHWVRQAPGQGLEWVAWINPNSGATNFTQKFQGRVTMTRDTSITTVYMQLSRLKSDDSAVYYCARDLSWSRLSGGTDFWGQGTLVTVSS
chain 2: DIQMTQSPSTLSASVRDRVTITCRASQSISSWLAWYQQKPGKAPKLLIYEASSLESGVPSRFSGSGSGTEFTLTIGSLQPDDFATYYCQQYKSYPWTFGQGTKVEIK
B3: C2403 (protein)
chain 1: B2 chain 1
chain 2: DIQLTQSPSSLSASVGDRVTITCRASQSISTYLNWYQQKPGKAPKLLIYAASSLQSGVPSRFSGSGSGTDFTLTISSLQPEDFATYYCQQSYSTGGFFGPGTKVDIK
B4: C2404 (protein)
chain 1: EVQLVESGGGLIQPGGSLRLSCAASGITVSSNYMTWVRQAPGKGLEWVSVIYSGGSTFYADSVKGRFTISRDNSKNTLYLQMNSLRGEDTAVYYCARDAQIYGMDVWGQGTTVTVSS
chain 2: DIQMTQSPSTLSASVGDRVTITCRASQSISSWLAWYQQKPGKAPKLLIYKASTLESGVPSRFSGSGSGTEFTLTITSLQPDDFATYYCQQYNSFFGGGTKVEIK
B5: C2438 (protein)
chain 1: EVQLVESGGGFVQPGRSLRLSCAASGFTFDDFAMDWVRQAPGKGLEWVSGISWDSGSIGYADSVKGRFTISRDNAKNSLYLQMNSLRAEDTALYYCAKDILGNYYYYSMHVWGQGTTVTVSS
chain 2: QSALTQPASVSGSPGQSITISCTGTSSDVGGYNYVSWYQQHPGKAPKLMIFDVSYRPSGVSNRFSGSKSGNTASLTISGLQAEDEADYYCSSYTSSSTLGVFGGGTKLTVL
B6: C2443 (protein)
chain 1: QVQLQESGPGLVKPSETLSLTCTVSGGSVSSGSYYWSWIRQPPGKGLEWIGYIYYSGSTNYNPSLKSRVTMSIDTSKDQFSLKLSSVTAADMAVYYCAREGLRTLGPPQLPDYFGIDVWGQGTTVTVSS
chain 2: SYELTQPPSVSVSPGQTARITCSGGALPKQYAYWYQQKPGQAPVLVIYKNTERPSGIPERFSGSRSGTTVTLTISGVQAEDEADYYCQSADSSGIYIWVFGGGTKLTVL
B7: C2022 (protein)
chain 1: QVQLQESGPGLVRPSETLSLTCTVSGGSVFSTYSWLSWIRQPPGKGLEWIGDMYHTGTANYNPSLESRVTMSLDRSKNQMSLNLRSVTAADTAVYYCASGRDESKTGYWGQGTLVTVSS
chain 2: DIVMTQSPDSLAVSLGERATFNCKSSQTVLYSPNNKNYLAWFQQKPGQPPKLLIYWASLRESGVPDRFSGSGSATDFTLTISSLQAEDVAVYYCQQYYSPPFTFGQGTKLEIK
B8: C2023 (protein)
chain 1: QLQLQESGPGLVKPSETLSLTCTVSGGSISSSSYYWGWIRQPPGKGLEWIGSIYYSGSTYYNPSLKSRVTISVDTSKNQFSLKLSSVTAADTAVYYCARQKWLRSDFDYWGQGTLVTVSS
chain 2: NFMLTQPHSVSESPGKTVTISCTGSSGSIASNYVQWYQQRPGSAPTTVIYEDNQRPSGVPDRFSGSIDSSSNSASLTISGLKTEDEADYYCQSYDSSNYYVFGTGTKVTVL
B9: C2209 (protein)
chain 1: EVQLVESGGGLVQPGRSLRLSCAASGFTFDDYAMHWVRQAPGKGLEWVSGISWNSGTIGYADSVKGRFTISRDNAKNSLYLQMNSLRAEDTALYYCAKDYCGGDCYSPTRGAGYGMDVWGQGTTVTVSS
chain 2: QSALTQPASVSGSPGQSITISCTGTSSDVGGYNYVSWYQQHPGKAPKLMIYDVSNRPSGVSNRFSGSKSGNTASLTISGLQAEDEADYYCSSYTSSSGVVFGGGTKLTVL
B10: C2025 (protein)
chain 1: EVQLVESGGGLIQPGGSLRLSCAASGFTVSSNYMSWVRQAPGKGLEWVSVIYSGGSTYYADSVKGRFTISRDNSKNTLYLQMNSLRAEDTAVYYCAREYGDWEWGQGTLVTVSS
chain 2: DIQMTQSPSSLSASVGDRVTITCQASQDISSYLNWYQLKPGKAPKLLIYDASNLETGVPSRFSGSGSGTDFTFTISSLQPEDIATYYCHQYDNLPRTFGQGTKLEIK
B11: C2026 (protein)
chain 1: QVQLVESGGGVVQPGGSLRLSCAASGFTFSSYGMHWVRQAPGKGLEWVAFIRYDGSNKYYADSVKGRFTISRDNSKNTLYLQMNSLRAEDTAVYYCAKPQYSYGYEEGIYFDYWGQGTLVTVSS
chain 2: SYELTQPPSVSVAPGQTARITCGGNNIGSKSVHWYQQKPGQAPVLVVYDDSDRPSGIPERFSGSNSGNTATLTISRVEAGDEADYYCQVWDSSSDHPGVFGGGTKLTVL
B12: C2028 (protein)
chain 1: EVQLLESGGALVQPGGSLRLSCAASGFTFIYSGMSWVRQAPGKGLEWVSAITGSGGNTYYADSVKGRFTISRDNSKNTLYLQLDSLRAEDTAIYYCAKTPMASPATRYDYWGQGSLVTVSS
chain 2: DIQMTQSPSALSASVGDRVTITCRASQNINDWLAWYQQKPGKAPKLLIYRASSLESGVPSRFSGSGSGREFTLTISSLQPDDFAAYYCQQYKSYPLTFGGGTKVEIK
B13: C2221 (protein)
chain 1: EVQLVESGGGLVQPGGSLRLSCAASGFTVSSNYMTWVRQAPGKGLEWVSVIYSGGSTYYADSVKGRFTISRDNSKNTLYLQMNSLRAEDTAVYYCARDLEEKGAFDIWGQGTMVTVSS
chain 2: DIQLTQSPSFLSASVGDRVTITCRASQGISSYLAWYQQKPGKAPKLLIYAASTLQSGVPSRFSGSGSGTEFTLTISSLQPEDFATYYCQQLNSYPPYTFGQGTKLEIK
B14: C2030 (protein)
chain 1: QVQLVQSGAEVKKPGASVKVSCKASGYTFTSYGISWVRQAPGQGLEWMGWISAYNGNTNYAQKLQGRVTMTTDTSTSTAYMELRSLRSDDTAVYYCARDRVLRFLGFDPWGQGTLVTVSS
chain 2: NFMLTQPHSVSESPGKTVTISCTGSSGSIASNYVQWYQQRPGSAPTTVIYEDNQRPSGVPDRFSGSIDSSSNSASLTISGLKTEDEADYYCQSYDSSNQGVVFGGGTKLTVL
B15: C2160 (protein)
chain 1: EVQLVESGGGLVQPGRSLRLSCAASGFTFDDYAMHWVRQAPGKGLEWVSGISWNSGTIGYADSVKGRFTISRDNAKNSLYLQMNSLRAEDTALYYCAKDIRGPYDRTEEGAFDIWGQGTMVTVSS
chain 2: SYELTQPPSVSVAPGQTARITCGGNNIGSKSVHWYQQKPGQAPVLVVYDDSDRPSGIPERFSGSNSGNTATLTISRVEAGDEADYYCQVWDSTSDHRVFGGGTKLTVL
B16: C2164 (protein)
chain 1: VQLVESGGGVVQPGRSLRLSCAASGFTFSSYGMHWVRQAPGKGLEWVAVISYDGSNKYYGDSVKGRFTISRDNSKNTLYLQMNSLRAEDTAVYYCAKPIYSYGSGSYSYFDYWGQGTLVTVSS
chain 2: IRMTQSPSSLSASVGDRVTITCQASQDISNYLNWYQQKPGKAPKLLIYDASNLETGVPSRFSGSGSGTDFTFTISSLQPEDIATYYCQQYDNLPQTFGQGTKLEIK

Molecular target: SARS-CoV-2 Wuhan-Hu-1 spike pseudovirus
Assay: pseudovirus neutralization IC50; higher = weaker neutralization
Experimental: (§1)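 Single-round luciferase reporter pseudovirus mixed with antibody dilutions and put on 293T-ACE2 cells for 48 h; signal relative to no-antibody wells, four-parameter fit.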

Q: For B1, which “pseudovirus neutralization IC50” value is on record?
A: 0.00306 µg/mL

Q: Which “pseudovirus neutralization IC50” value does the source give for B2 here?
A: > 1 µg/mL

Q: With B3 as the binder, how does the “pseudovirus neutralization IC50” value read?
A: 0.573 µg/mL

Q: How did the “pseudovirus neutralization IC50” value turn out when B4 was run?
A: 0.056 µg/mL

Q: How did the “pseudovirus neutralization IC50” value turn out when B5 was run?
A: 0.0131 µg/mL

Q: For B6, which “pseudovirus neutralization IC50” value is on record?
A: > 1 µg/mL

Q: For B7, which “pseudovirus neutralization IC50” value is on record?
A: 0.0579 µg/mL

Q: Which “pseudovirus neutralization IC50” value does the source give for B8 here?
A: > 1 µg/mL

Q: How did the “pseudovirus neutralization IC50” value turn out when B9 was run?
A: 0.0445 µg/mL

Q: How did the “pseudovirus neutralization IC50” value turn out when B10 was run?
A: 0.0475 µg/mL

Q: How did the “pseudovirus neutralization IC50” value turn out when B11 was run?
A: 0.636 µg/mL

Q: For B12, which “pseudovirus neutralization IC50” value is on record?
A: > 1 µg/mL

Q: For B13, which “pseudovirus neutralization IC50” value is on record?
A: 0.0411 µg/mL

Q: Which “pseudovirus neutralization IC50” value does the source give for B14 here?
A: 0.114 µg/mL

Q: Which “pseudovirus neutralization IC50” value does the source give for B15 here?
A: 0.227 µg/mL

Q: For B16, which “pseudovirus neutralization IC50” value is on record?
A: > 1 µg/mL

Molecular target: SARS-CoV-2 Wuhan-Hu-1 spike pseudovirus
Assay: pseudovirus neutralization IC90; higher = weaker neutralization
Experimental: as §1

Q: With B1 as the binder, how does the “pseudovirus neutralization IC90” value read?
A: 0.0421 µg/mL

Q: For B2, which “pseudovirus neutralization IC90” value is on record?
A: > 1 µg/mL

Q: How did the “pseudovirus neutralization IC90” value turn out when B3 was run?
A: > 1 µg/mL

Q: With B4 as the binder, how does the “pseudovirus neutralization IC90” value read?
A: > 1 µg/mL

Q: For B5, which “pseudovirus neutralization IC90” value is on record?
A: 0.0973 µg/mL

Q: For B6, which “pseudovirus neutralization IC90” value is on record?
A: > 1 µg/mL

Q: B7 was tested. Which “pseudovirus neutralization IC90” value did it give?
A: 0.348 µg/mL

Q: For B8, which “pseudovirus neutralization IC90” value is on record?
A: > 1 µg/mL

Q: B9 was tested. Which “pseudovirus neutralization IC90” value did it give?
A: > 1 µg/mL

Q: For B10, which “pseudovirus neutralization IC90” value is on record?
A: 0.347 µg/mL

Q: For B11, which “pseudovirus neutralization IC90” value is on record?
A: > 1 µg/mL

Q: Which “pseudovirus neutralization IC90” value does the source give for B12 here?
A: > 1 µg/mL

Q: Which “pseudovirus neutralization IC90” value does the source give for B13 here?
A: 0.369 µg/mL

Q: Which “pseudovirus neutralization IC90” value does the source give for B14 here?
A: > 1 µg/mL

Q: With B15 as the binder, how does the “pseudovirus neutralization IC90” value read?
A: > 1 µg/mL

Q: With B16 as the binder, how does the “pseudovirus neutralization IC90” value read?
A: > 1 µg/mL

Molecular target: SARS-CoV-2 Wuhan-Hu-1 spike receptor-binding domain
Assay: ELISA binding EC50; higher = weaker binding; ELISA of recombinant human antibody on coated antigen, from 10 µg/ml in fourfold dilutions; four-parameter fit.

Q: B1 was tested. Which “ELISA binding EC50” value did it give?
A: 0.00246 µg/mL

Q: B2 was tested. Which “ELISA binding EC50” value did it give?
A: 0.0308 µg/mL

Q: Which “ELISA binding EC50” value does the source give for B3 here?
A: 0.00223 µg/mL

Q: With B4 as the binder, how does the “ELISA binding EC50” value read?
A: 0.003 µg/mL

Q: For B5, which “ELISA binding EC50” value is on record?
A: 0.00201 µg/mL

Q: For B6, which “ELISA binding EC50” value is on record?
A: 0.00298 µg/mL

Q: How did the “ELISA binding EC50” value turn out when B7 was run?
A: 0.00213 µg/mL

Q: How did the “ELISA binding EC50” value turn out when B8 was run?
A: 0.00245 µg/mL

Q: Which “ELISA binding EC50” value does the source give for B9 here?
A: 0.00146 µg/mL

Q: With B10 as the binder, how does the “ELISA binding EC50” value read?
A: 0.00202 µg/mL

Q: Which “ELISA binding EC50” value does the source give for B11 here?
A: 0.00188 µg/mL

Q: With B12 as the binder, how does the “ELISA binding EC50” value read?
A: 0.226 µg/mL

Q: With B13 as the binder, how does the “ELISA binding EC50” value read?
A: 0.00176 µg/mL

Q: With B14 as the binder, how does the “ELISA binding EC50” value read?
A: 0.00198 µg/mL

Q: For B15, which “ELISA binding EC50” value is on record?
A: 0.00216 µg/mL

Q: For B16, which “ELISA binding EC50” value is on record?
A: 0.00142 µg/mL

Reference: the supplement of paper PMC8674133
